Screen size: about 45,000 compounds; about 65 (0.1%) were called active. Calls follow the shape of the dose curve; as a rule, active = well fitted activation curve with a large enough effect; inconclusive = small, poorly fitted or top-dose-only effect; inactive = no such curve, though single readings can be large or run the other way. The list shows a part of the results.
molecular target: Galactocerebrosidase (Homo sapiens) (UniProt P54803); experiment: A Novel Cell-Based Assay to Identify Small Molecules for B -Galactocerebrosidase; conditions: 145M-Twi-hGALC-G270D cells, HMU-beta-Gal fluorescence, 48 h; series mostly up to 57.5 µM; activation: at the top concentration; also: 0% is about no effect; nearly all actives have a fitted effect of over 65% in size
How it was run: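 qHTS, 1536-well; 145M-Twi-hGALC-G270D cells (WT line also made) in DMEM/F12 + 10% FBS; compound incubation on live cells; HMU-β-gal 0.1 mM final, pH 5.2, NaTC; carbonate stop; fluorescence increase = enhanced residual activity.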

Chain of UniProt P54803 (P54803 whole entry, looked up): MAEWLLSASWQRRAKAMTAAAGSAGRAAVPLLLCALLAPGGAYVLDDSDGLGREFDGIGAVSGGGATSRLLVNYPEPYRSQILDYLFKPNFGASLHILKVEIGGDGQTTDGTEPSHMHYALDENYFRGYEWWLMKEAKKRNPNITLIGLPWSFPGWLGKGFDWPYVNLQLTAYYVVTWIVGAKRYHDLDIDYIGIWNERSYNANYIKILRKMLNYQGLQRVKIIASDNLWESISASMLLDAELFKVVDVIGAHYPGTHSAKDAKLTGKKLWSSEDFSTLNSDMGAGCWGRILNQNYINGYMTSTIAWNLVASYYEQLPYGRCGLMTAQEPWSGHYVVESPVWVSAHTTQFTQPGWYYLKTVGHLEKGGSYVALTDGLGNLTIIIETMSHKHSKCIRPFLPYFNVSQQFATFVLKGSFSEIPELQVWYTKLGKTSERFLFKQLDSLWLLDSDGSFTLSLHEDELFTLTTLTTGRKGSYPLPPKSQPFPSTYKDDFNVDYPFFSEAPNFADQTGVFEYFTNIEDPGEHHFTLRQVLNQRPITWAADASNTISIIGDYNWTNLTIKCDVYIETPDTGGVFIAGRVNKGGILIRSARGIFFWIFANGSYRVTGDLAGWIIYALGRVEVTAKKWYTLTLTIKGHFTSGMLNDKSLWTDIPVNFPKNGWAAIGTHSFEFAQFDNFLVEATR

activation, inactive:
CCc1ccc(NC(=O)CC2C(=O)NCCN2C(=O)c2ccccc2OC)cc1 (stereo unspecified) -3.42%
Cc1nc(SCc2cc(=O)c3cccc(F)c3[nH]2)n[nH]1 -1.13%
CCOCCc1nn2c(=O)cc(COC(=O)COc3ccc(C)c(C)c3)nc2s1 -4.12%
CC(C)c1ccc(NC(=O)c2ccc3oc(=O)c(S(=O)(=O)c4ccc(F)cc4)cc3c2)cc1 -13%
COc1cn(CC(=O)Nc2c(C)cc(C)cc2C)c(CN2CCCCC2)cc1=O -2.62%
COc1ccc(NC(=O)Cn2ncc3c(C)n(Cc4cccc(Cl)c4)c(C)c3c2=O)cc1 -10.5%
CC(C)c1ccc(NC(=O)CSc2ncnc3c2sc2ccccc23)cc1 -16.2%
COc1ccccc1CNCc1ccc(C(=O)O)s1 -3.43%
Clc1cccc(CSc2nc(NCCc3ccccc3)c3ccccc3n2)c1 -0.748%
COc1ccc(-c2nc3sc(CCNC(=O)Cc4ccc(Cl)cc4)c(C)n3n2)cc1 -39.9%
CCOc1ccc(CCNC(=O)CSc2nc3ccccc3nc2Cc2ccc(C)cc2)cc1OCC 5.34%
CC(C)CCOc1ccc(Cn2c(=O)sc3ccccc32)cc1 -16.3%
COc1ccc(C(=O)Nc2ccc(N3CCN(c4ccccc4)CC3)c(C(=O)O)c2)cc1 -8.62%
COc1c(C)cccc1C(=O)Nc1ccc(Cl)c(-c2nc3cc(C)ccc3o2)c1 7.3%
CCOc1ccc(CCNC(=O)C(CC(C)C)N2Cc3ccccc3C2=O)cc1OCC (stereo unspecified) -7.82%
CCOc1ccccc1NC(=O)Nc1ccc2nc(N3CCN(C)CC3)cc(C)c2c1 -10.2%
CC(=O)OC[C@H]1O[C@@H](n2ncc(=O)[nH]c2=O)[C@H](OC(C)=O)[C@@H]1OC(C)=O 5.42%
CCN(CC)c1ccc(NC(=O)CN(C)S(=O)(=O)c2cccc3nsnc23)c(C)c1 -18.5%
CCN(CC)c1ccc(C(=O)NCc2ccc3c(c2)CCN3C(=O)c2cccc(C)c2)cc1 -12.4%
CCCCN(CC)CCCNC(=O)Cn1nc(CC)n2c(cc3sccc32)c1=O -17.8%
CSc1ncc(C(=O)NCc2ccc(F)cc2)c(-c2ccccc2)n1 8.11%
CCOC(=O)c1ccc(NC(=O)CCCn2nc(C)c3sc4ccccc4c3c2=O)cc1 -5.71%
COc1ccc2c(c1)c1c(c(=O)n(CCc3ccccc3)c(=O)n1Cc1cccc(C)c1)n2C 4.64%
COc1ccc(Nc2ncnc3c2cnn3-c2cc(Cl)ccc2C)cc1OC -17.3%
Cc1cccc(-c2nc(SCCCOc3cc(C)c(Cl)c(C)c3)n3[nH]c(=O)cc3n2)c1 -4.54%
CCOc1ccc(OCCOCCn2c(-c3ccc(Cl)cc3)nc3ccccc3c2=O)cc1 -13.5%
O=C(Cc1ccc(-c2ccccc2)cc1)NCCS(=O)(=O)N1CCN(c2cccc(Cl)c2)CC1 -1.5%
CCCc1oc2ccc(NS(=O)(=O)c3ccc(OCC)cc3)cc2c1C(=O)OCC -17.2%
Cc1ccc(C(=O)OC2=C(C(=O)c3ccccc3)N(C)S(=O)(=O)c3ccccc32)cc1 -9.48%
COC(=O)CC(=O)CSc1nc2cc(C(=O)NC(C)C)ccc2c(=O)n1CCc1ccccc1 -10.3%
Cc1oc2ncn(CC(C)C)c(=O)c2c1C(=O)NCc1cccc(Cl)c1 -13.2%
CCOc1ccc(Nc2sc(C(=O)c3ccc(F)cc3)c(N)c2S(=O)(=O)c2ccc(C)cc2)cc1 -21.3%
CC1c2ccccc2CN1NC(=O)c1ccc(Cl)c(S(N)(=O)=O)c1 (stereo unspecified) -15.4%
O=C(CN1C(=O)COc2ccc(S(=O)(=O)N3CCOCC3)cc21)NCc1ccc(Cl)cc1 2.07%
CCN(C(=O)CSc1nnc(-c2cc3occc3n2C)n1-c1ccccc1C)c1ccccc1 -4.55%
CS(=O)(=O)c1ncc(Cl)c(C(=O)N2CCN(c3cccc(Cl)c3)CC2)n1 -11.9%
COc1ccc(Cl)cc1NC(=O)c1ccc(CN2C(=O)CCn3nc(C)cc32)cc1 -7.68%
COc1cc(Cl)c(C)cc1NC(=O)CNC(=O)Cn1ccc2ccccc2c1=O -14.3%
CCc1ccc(-c2nc3c(c(SCc4ccccc4)n2)Cc2c(CO)cnc(C)c2O3)cc1 -1%
CC(C)Oc1ccc(CNC(=O)c2cc3cccc4c3n2CC(C)S4)cc1 (stereo unspecified) -16.1%
Cc1ccc(Cn2c(C(=O)Nc3ccc(Cl)cc3)cc3sccc32)cc1 -17.8%
Cc1ccc(-c2onc(C)c2C)cc1S(=O)(=O)N1CCC(C)CC1 6.15%
Cc1c(C(=O)NCc2ccccc2Cl)sc2nc3n(c(=O)c12)CCCC3 -16.2%
CCOc1ccccc1CNC(=O)C(CC)n1nc(C)c2c(C)n(-c3ccccc3)nc2c1=O (stereo unspecified) -23.2%
CCOC(=O)N1CCC(NC(=O)c2ccc3c(c2)N(Cc2ccccc2)C(=O)c2ccccc2S3(=O)=O)CC1 0.949%
COc1ccc(Br)c2c1-c1nc(NC(=O)c3ccc(F)cc3)sc1C2 4.65%
CC(C)Cn1cc(NC(=O)NCc2ccc(Cl)cc2)c2ccccc2c1=O -24.8%
CCC(=O)N1c2ccccc2CC1C(=O)NCCCN1CCN(c2cccc(Cl)c2)CC1 (stereo unspecified) -15%
COc1ccc(C2c3c(n(C)c4ccccc34)C(=O)N2CC(=O)Nc2c(C)cc(C)cc2C)cc1 (stereo unspecified) -1.22%
Cc1ccc(C)c(NC(=O)CSc2nc(=O)n(CCN3CCOCC3)c3c2CCC3)c1 -15.4%
COc1cc2c(cc1OC)C(COc1ccc3c(C)cc(=O)oc3c1)N(C(=O)c1ccc(C)cc1)CC2 (stereo unspecified) -19.5%
COc1ccc(C(=O)CN2CCN(S(=O)(=O)c3ccc(F)cc3)CC2)cc1 -0.613%
COCCCNc1nc2c(c(=O)n(Cc3ccccc3)c(=O)n2C)n1C -4.54%
Cc1ccc2c(c1)C(=O)OC(C(=O)Nc1ccc(C(=O)O)cc1)C2 (stereo unspecified) 6.41%
O=C(Nc1ccc(Cl)cc1)c1ccc2oc(=O)n(Cc3ccccc3)c2c1 -11.2%
CCOC(=O)c1nnn(CC(=O)NC(=O)Nc2ccccc2F)c1C(=O)OCC -12.9%
CC1CCN(C(=O)CCS(=O)(=O)c2cc3c(cc2Cl)NC(=O)CO3)CC1 -2.22%
O=C(c1cc(-c2ccc(Br)cc2)n[nH]1)N1CCN(S(=O)(=O)c2ccc(Br)s2)CC1 3.2%
CCCCSc1nnc2[nH]c(=O)cc(C)n12 -16.7%
CC(=O)N1CCC2(CC1)OC(=O)C(C)=C2C(=O)NCc1ccccc1Cl -7.92%
COc1ccc(-c2cn3c(n2)sc2cc(C(=O)Nc4ccc(F)cc4)ccc23)cc1 0.197%
